Among all 39,000 compounds or so, about 220 (0.56%) showed activity. This is one part of the list.

In the supplement of paper PMC9446081 one finds relative growth data, which are given here for 45 molecules.
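Note: static incubation at 37 °C against the wild-type strain, values averaged over two biological replicates.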

In the test the test system is Escherichia coli K-12 BW25113. Description: relative growth (OD600 normalised to plate interquartile mean) (fraction); higher = less growth inhibition, active = 0.2 or less. As to conditions: 50 µM; LB; incubation time: overnight (16-24 h).
`Cc1noc(C)c1NC(=O)Nc1ccc2c(c1)CC(=O)N([C@H](C)CO)C[C@@H](C)[C@@H](CN(C)C(=O)Nc1cccc3ccccc13)O2`: the relative growth was inactive: 0.995. As for `Cc1noc(C)c1NC(=O)Nc1ccc2c(c1)C(=O)N([C@H](C)CO)C[C@@H](C)[C@@H](CN(C)Cc1ccc(C(F)(F)F)cc1)O2`, the relative growth was inactive: 0.937. As for `C[C@H]1CN([C@@H](C)CO)S(=O)(=O)c2ccc(-c3ccncc3)cc2O[C@H]1CN(C)C(=O)c1ccc2c(c1)OCO2`, the relative growth was inactive: 1.02. For the molecule `CCCN(C)C[C@H]1OCCCC[C@@H](C)Oc2ccc(NC(=O)Nc3ccc(F)cc3)cc2C(=O)N([C@@H](C)CO)C[C@H]1C`, the relative growth was inactive: 0.967. In the case of `Cn1ccnc1`, the relative growth was inactive: 0.999. Regarding `C[C@@H]1CN([C@H](C)CO)C(=O)c2cc(NS(C)(=O)=O)ccc2O[C@H]1CN(C)C(=O)Nc1ccc(F)cc1`, the relative growth is inactive: 1.01. With `C[C@@H]1CN([C@H](C)CO)C(=O)c2cc(NS(=O)(=O)c3ccccc3)ccc2O[C@@H](C)CCCCO[C@@H]1CN(C)S(=O)(=O)c1ccc(Cl)cc1`, the relative growth is inactive: 1.05.

With `C[C@H]1CN([C@@H](C)CO)C(=O)c2c(c3ccccc3n2C)-c2ccccc2CO[C@@H]1CN(C)Cc1ccc(O)cc1`, the relative growth was inactive: 0.999.

On to `C[C@@H]1CCCCO[C@@H](CN(C)C(=O)Nc2cccc3ccccc23)[C@H](C)CN([C@H](C)CO)C(=O)c2cc(NC(=O)c3ccccc3)ccc2O1`, for which the relative growth was inactive: 1.01. The same measure for `Cc1noc(C)c1NC(=O)N(C)C[C@H]1Oc2ccc(NC(=O)c3ccncc3)cc2C(=O)N([C@@H](C)CO)C[C@H]1C`: inactive: 0.955; for `Cn1cncc1CO`: inactive: 0.995; for `CC(=O)OCC(=O)NCCCOc1cccc(CN2CCCCC2)c1.Cl`: inactive: 1.15. As to `C[C@H](CO)N1C[C@H](C)[C@H](CN(C)C(=O)CN2CCOCC2)Oc2ncc(C#CCN(C)C)cc2C1=O`, the relative growth is inactive: 1.01. As for `C[C@H]1CN([C@@H](C)CO)C(=O)Cc2cc(NC(=O)CCN3CCOCC3)ccc2O[C@H]1CN(C)C(=O)Nc1ccc(F)cc1`, the relative growth is inactive: 0.987.

For `Cc1[nH]c(=S)c(C#N)c(C)c1Cc1ccc(Cl)cc1Cl`, the relative growth was inactive: 1.03. Turning to `CCOC(=O)c1c(C)cc(O)c(C=O)c1O`, the relative growth was active: 0.0424. Regarding `Cn1cnc(S(=O)(=O)N[C@@H]2CC[C@H](CC(=O)NCC3CC3)O[C@@H]2CO)c1`, the relative growth was inactive: 0.975. In the case of `CN(C)C(=O)C[C@H]1CC[C@H](NC(=O)C2CCOCC2)[C@@H](CO)O1` it was inactive: 1.02; in that of `NCc1ccccc1-n1cccn1`, inactive: 1. In the case of `NS(=O)(=O)c1ccc(F)c(C(=O)O)c1`, the relative growth is inactive: 0.988. Regarding `Cc1cc(Nc2ncc(Cl)c(Nc3ccccc3S(=O)(=O)C(C)C)n2)c(OC(C)C)cc1C1CCNCC1`, the relative growth was inactive: 0.967.

Turning to `COc1ccc(S(=O)(=O)N(C)C[C@H]2Oc3ccc(N(C)C)cc3C(=O)N([C@@H](C)CO)C[C@H]2C)cc1`, the relative growth was inactive: 1.02. As for `CC(C)CCCC(C)N` (stereo not given), the relative growth was inactive: 1.03. On to `CN1C(=O)c2cc(NC(=O)Nc3ccccc3F)ccc2OC[C@H]2O[C@@H](CC(=O)Nc3cccc(Cl)c3)CC[C@@H]21`, for which the relative growth was inactive: 1.

Regarding `Cn1c(=O)c2[nH]c(C3CCCC3)nc2n(C)c1=O`, the relative growth is inactive: 0.997.

Regarding `Cc1noc(C)c1NC(=O)N(C)C[C@H]1Oc2cc(C#CCN(C)C)ccc2S(=O)(=O)N([C@H](C)CO)C[C@H]1C`, the relative growth is inactive: 0.99. In the case of `Cc1ccc(S(=O)(=O)N(C)C[C@H]2OCCCC[C@@H](C)Oc3ccc(NS(C)(=O)=O)cc3C(=O)N([C@H](C)CO)C[C@H]2C)cc1`, the relative growth is inactive: 1.04. Take `C[C@H]1CN([C@@H](C)CO)C(=O)Cc2cc(NC(=O)Nc3cccc4ccccc34)ccc2O[C@H]1CN(C)CC1CCCCC1`: the relative growth is inactive: 1.01. For `Cc1ccc(S(=O)(=O)Nc2cccc3c2O[C@@H](CN(C)Cc2ccc(-c4ccccc4)cc2)[C@H](C)CN([C@@H](C)CO)C3=O)cc1`, the relative growth is inactive: 0.883. For `C[C@H](CO)N1C[C@H](C)[C@@H](CN(C)Cc2ccc(C(F)(F)F)cc2)OCCCC[C@H](C)Oc2ccc(NS(=O)(=O)c3ccc(Cl)cc3)cc2C1=O`, the relative growth was inactive: 1.05. `CC(C)NC(=O)Nc1cccc2c1O[C@@H](CN(C)Cc1ccc(Oc3ccccc3)cc1)[C@H](C)CN([C@H](C)CO)C2=O`: the relative growth is inactive: 1. For the molecule `C[C@H](NC(=O)C[C@@H]1CC[C@H](NC(=O)CN2CCOCC2)[C@H](CO)O1)c1ccccc1`, the relative growth is inactive: 1.02. In the case of `O=c1cc(-c2ccccc2)oc2cc(O)c(O)c(O)c12`, the relative growth was inactive: 0.942. As to `C=CCC[C@@H](Cc1ccc(F)cc1)C(=O)OC[C@@H](Cc1c[nH]c2ccccc12)NC(=O)[C@@H](CC=C)CC(=O)N[C@H](CO)Cc1ccccc1`, the relative growth is inactive: 1.04.

On to `C=c1ccccc1=C1NN=C(SCC(=O)OC)O1`, for which the relative growth was inactive: 0.962. The same measure for `CC(C)NC(=O)N[C@H]1C=C[C@@H](CC(=O)NCCCN(C)C)O[C@H]1CO`: inactive: 1.01; for `Cl.NCC(=O)CCC(=O)O`: inactive: 1.22; for `COc1ccc(S(=O)(=O)N2C[C@H](O)COC[C@H]3O[C@@H](CC(=O)NCCCN4CCOCC4)CC[C@@H]32)cc1`: inactive: 0.976. On to `NNS(=O)(=O)c1ccc(Oc2ccc(S(=O)(=O)NN)cc2)cc1`, for which the relative growth was inactive: 1.01. For the molecule `C[C@@H]1CN([C@H](C)CO)C(=O)Cc2cc(NS(=O)(=O)c3cn(C)cn3)ccc2O[C@@H]1CN(C)Cc1ccc(C(=O)O)cc1`, the relative growth was inactive: 1.03. Turning to `Cc1noc(C)c1NC(=O)N(C)C[C@@H]1Oc2ccc(NC(=O)Cn3cnnn3)cc2C(=O)N([C@@H](C)CO)C[C@@H]1C`, the relative growth was inactive: 0.989. In the case of `CC(NC(CCc1ccccc1)C(=O)O)C(=O)N1Cc2ccccc2CC1C(=O)O` (stereo not given), the relative growth is inactive: 1.08.

In the case of `ON=C1/C(=N\O)CC2(C/C1=N/O)OCCO2`, the relative growth is inactive: 0.832. As to `CC(C)NC(=O)N(C)C[C@H]1Oc2c(NS(=O)(=O)c3cccs3)cccc2C(=O)N([C@@H](C)CO)C[C@@H]1C`, the relative growth was inactive: 0.986. Turning to `O=C(C1=C[C@@H](c2ccc3c(c2)OCO3)C[C@@H](OCCCCO)O1)N1CCN(Cc2ccc3c(c2)OCO3)CC1`, the relative growth was inactive: 1.02.
